Changes are numbered by the printed parent chain.
B1: Anti-cKIT Ab3: full length anti-cKIT antibody, heavy chain SEQ ID NO: 56, light chain SEQ ID NO: 25 (antibody)
heavy: QVQLVQSGAEVKKPGSSVKVSCKASGGTFSSYAISWVRQAPGQGLEWMGTIGPFEGQPRYAQKFQGRVTITADESTSTAYMELSSLRSEDTAVYYCARGGYISDFDVWGQGTLVTVSSASTKGPSVFPLAPSSKSTSGGTAALGCLVKDYFPEPVTVSWNSGALTSGVHTFPAVLQSSGLYSLSSVVTVPSSSLGTQTYICNVNHKPSNTKVDKRV[human IgG1 Fc left out]
light: DIQMTQSPSSLSASVGDRVTITCRASQSISNYLAWYQQKPGKAPKLLIYDASSLQSGVPSRFSGSGSGTDFTLTISSLQPEDFATYYCQQYYYESITFGQGTKVEIKRTVAAPSVFIFPPSDEQLKSGTASVVCLLNNFYPREAKVQWKVDNALQSGNSQESVTEQDSKDSTYSLSSTLTLSKADYEKHKVYACEVTHQGLSSPVTKSFNRGEC
B2: Anti-cKIT Ab1: full length anti-cKIT antibody, heavy chain SEQ ID NO: 12, light chain SEQ ID NO: 25 (antibody)
heavy: B1 heavy with T50V, G52F, F54A, Q57A, R59G
light: B1 light
B3: Anti-cKIT Ab2: full length anti-cKIT antibody, heavy chain SEQ ID NO: 38, light chain SEQ ID NO: 49 (antibody)
heavy: QVQLVQSGAEVKKPGSSVKVSCKASGGTFSSHALSWVRQAPGQGLEWMGGIIPSFGTADYAQKFQGRVTITADESTSTAYMELSSLRSEDTAVYYCARGLYDFDYWGQGTLVTVSSASTKGPSVFPLAPSSKSTSGGTAALGCLVKDYFPEPVTVSWNSGALTSGVHTFPAVLQSSGLYSLSSVVTVPSSSLGTQTYICNVNHKPSNTKVDKRV[human IgG1 Fc left out]
light: B1 light with S28D, N31Q, Y32D, T85V, E94L, S95P, I96S

How the values were obtained:
human cKIT ECD = target: T1, human cKIT ECD (Homo sapiens, UniProt P10721); assay: Affinity measurement of cKIT antibodies to human cKIT ECD; assay type: binding; details: read-out: KD (pM) to human cKIT ECD in SET
T1 construct: residues 26-520-TAG; made in house; host or cells: HEK293 derived cell line 293FS, transient transfection
T1 sequence (P10721 with tags, fused parts or gaps isoform P10721-2): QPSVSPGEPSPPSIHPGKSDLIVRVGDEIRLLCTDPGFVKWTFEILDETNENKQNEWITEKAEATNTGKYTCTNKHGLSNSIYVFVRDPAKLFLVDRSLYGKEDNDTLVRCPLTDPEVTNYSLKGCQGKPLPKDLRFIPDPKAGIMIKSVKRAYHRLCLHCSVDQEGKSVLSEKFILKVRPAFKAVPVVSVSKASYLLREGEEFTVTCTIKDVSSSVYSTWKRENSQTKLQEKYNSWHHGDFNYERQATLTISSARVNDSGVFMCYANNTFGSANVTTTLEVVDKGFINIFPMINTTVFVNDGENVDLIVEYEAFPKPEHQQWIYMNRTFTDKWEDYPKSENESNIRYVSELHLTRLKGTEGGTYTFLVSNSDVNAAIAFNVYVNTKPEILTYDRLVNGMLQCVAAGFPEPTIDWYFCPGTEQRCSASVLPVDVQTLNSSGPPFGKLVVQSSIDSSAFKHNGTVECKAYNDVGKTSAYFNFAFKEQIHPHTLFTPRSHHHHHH

[1] = tested on: human peripheral blood HSC-derived mast cells; assay: In vitro human mast cell degranulation assay (beta-hexosaminidase release); assay type: cell-based; details: test agents 0.006-25 nM cross-linked with antibody specific for the Fab portion; absence of SCF
Method: Mature mast cells were generated using CD34+ progenitors from mobilized peripheral blood. CD34+ cells were cultured in StemSpan SFEM (StemCell Technologies) supplemented with recombinant human stem cell factor (rhSCF, 50 ng/ml, Gibco), recombinant human interleukin 6 (rhIL-6, 50 ng/ml, Gibco), recombinant human IL-3 (30 ng/ml, Peprotech), GlutaMAX ([…], Gibco), penicillin (100 U/ml, Hyclone) and streptomycin (100 μg/ml, Hyclone). Recombinant hll-3 was added only during the first week of the culture. After the third week, half of the medium was replaced weekly with fresh medium containing rhIL-6 (50 ng/ml) and rhSCF (50 ng/ml). Mature mast cell purity was evaluated by surface staining of high-affinity IgE receptor (FCεRI, eBioscience) and CD117 (BD). Cells were used between week 8 and 12 of the culture.
The derived mast cells were washed once to remove SCF, and the required amount of cells was incubated overnight in mast cell medium containing rhIL-6 (50 ng/ml) with or without rhSCF (50 ng/ml). As positive control for mast cell degranulation, a portion of the cells were sensitized with human myeloma IgE (100 ng/ml, EMD Millipore). The following day, anti-cKIT antibody or antibody fragments or toxin conjugates thereof, mouse monoclonal anti-human IgG1 (Fab specific, Sigma), goat anti-human IgE (Abcam) and compound 48/80 (Sigma) dilutions were prepared in HEPES degranulation buffer (10 mM HEPES, 137 mM NaCl, 2.7 mM KCl, 0.4 mM sodium phosphate dibasic, 5.6 mM glucose, pH adjusted at 7.4 and mixed with 1.8 mM calcium chloride and 1.3 mM magnesium sulfate) supplemented with 0.04% bovine serum albumin (BSA, Sigma). Test agents and anti-IgG1 were mixed together in a V-bottom 384-well assay plate while anti-IgE and compound 48/80 were tested alone. The assay plate was incubated 30 min at 37° C. During the incubation, cells were washed 3 times with HEPES degranulation buffer+0.04% BSA to remove medium and unbound IgE. Cells were resuspended in HEPES degranulation buffer+0.04% BSA and seeded at 3000 cells per well in the assay plate for a final reaction volume of 50 μl. Cells that were sensitized with IgE were used only with anti-IgE as a positive control for degranulation. The assay plate was incubated 30 min at 37° C. for degranulation to occur. During this incubation, p-nitro-N-acetyl-pi-D-gluosamine (pNAG, Sigma) buffer was prepared by sonicating 3.5 mg/ml of pNAG in citrate buffer (40 mM citric acid, 20 mM sodium phosphate dibasic, pH 4.5). β-hexosaminidase release was measured by mixing 20 μl of cell supernatant with 40 μl of pNAG solution in a flat-bottom 384-well plate. This plate was incubated for 1.5 hour at 3700, and the reaction was stopped by the addition of 40 μl of stop solution (400 mM glycine, pH 10.7). Absorbance was read using a plate reader at λ=405 nm with reference filter at λ=620 nm.
Mature mast cells were generated and tested with anti-cKIT antibody and F(ab′)2 and Fab fragments as described in Example 6.

rat cKIT = assay: Cross reactivity of cKIT antibodies to rat cKIT; assay type: binding
mouse cKIT = target: T2, mouse cKIT (Mus musculus, UniProt P05532); assay: Cross reactivity of cKIT antibodies to mouse cKIT; assay type: binding
T2 construct: 3.125-50 nM of cKIT receptor extracellular domains (ECD) were diluted in a 2-fold series; purchased Sino Biological Inc 50530-M08H
T2 sequence (P05532 25-527 limits assumed): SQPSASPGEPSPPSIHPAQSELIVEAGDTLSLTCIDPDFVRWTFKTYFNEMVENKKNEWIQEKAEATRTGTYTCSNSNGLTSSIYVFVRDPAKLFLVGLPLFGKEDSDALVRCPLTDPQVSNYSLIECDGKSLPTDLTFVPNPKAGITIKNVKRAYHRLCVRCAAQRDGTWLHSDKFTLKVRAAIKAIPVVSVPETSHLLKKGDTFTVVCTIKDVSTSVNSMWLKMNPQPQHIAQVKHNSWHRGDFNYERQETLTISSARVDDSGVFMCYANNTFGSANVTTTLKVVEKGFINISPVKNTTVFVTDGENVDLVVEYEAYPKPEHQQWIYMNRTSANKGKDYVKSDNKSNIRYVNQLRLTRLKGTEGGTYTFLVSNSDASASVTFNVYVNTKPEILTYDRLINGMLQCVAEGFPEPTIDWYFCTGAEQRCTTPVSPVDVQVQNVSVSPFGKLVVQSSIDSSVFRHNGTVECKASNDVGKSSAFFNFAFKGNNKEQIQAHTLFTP

Molecule | Kd (human cKIT ECD) | mast cell degranulation (beta-hexosaminidase release) when cross-linked [1] | Reactivity to rat cKIT (rat cKIT) | Reactivity to mouse cKIT (mouse cKIT)
B1 | 160 pM | caused mast cell degranulation when cross-linked | Not | Not
B2 |  | caused mast cell degranulation when cross-linked | Not | Not
B3 |  | caused mast cell degranulation when cross-linked | Not | Not
